Test results taken from patent US20250051755A1 (published 2025).

Target: Her2 (UniProt P04626)
Assay: FACS binding to SKOV3 cells

Binder | Kd
a-Her2 (1A11) VHH-hIgG1-Fc (Fc fusion) QVQLQESGGGLVQAGGSLKLSCAASGRAFIDNVMGWFRRAPGKEREFVAGLSRTGANTMYQDSVKGRFTISRDDAKNTLYLQMNSLKPEDTAVYYCAARSQGATVVITTTGGYDYWGQGTQVTVSS[letters of human IgG1 Fc not shown] | 1 nM
a-Her2 (1A12) VHH-hIgG1-Fc (Fc fusion) QVQLQESGGGLVQAGGSLRLSCAASGRTISNAFMGWYHQAPGEQREFVATISTTGTTNYRNSVKGRFTISRDNAKNTVYLQMNNLKPEDMGTYYCRHFGYDVWGQGTQVTVSS[letters of human IgG1 Fc not shown] | 8 nM
a-Her2 (1A51) VHH-hIgG1-Fc (Fc fusion) QVQLQESGGGLVQAGGSLRLSCAGSGRTFSLYSMGWFRQSAGKAREFVASINWNGEVTEYADSVKGRFIISKANANKTMSLQMNSLKFEDTGVYYCAAAPRFESTWLADYWGQGTQVTVSS[letters of human IgG1 Fc not shown] | 1 nM

The remaining lines, values ahead:

Kd | Binder
42 nM | a-Her2 (1A68) VHH-hIgG1-Fc (Fc fusion) QVQLQQFGGGLVKTGDSLRLSCAASGRSFRSYAMGWFRQNPGKERRFVAGVSWSGDITSYADSVKGRFIISRDNDKSTVYLQMHSLKAEDTAIYYCGARLGGAISEVADPYDYWGQGTLVTVSS[letters of human IgG1 Fc not shown]
2 nM | a-Her2 (1A100) VHH-hIgG1-Fc (Fc fusion) QVQLQESGGGLVQAGDSLKLSCAASGDTFSRYAMAWFRQAPGKEREFVAAVSWSGGITHYADSLKGRFTISRDSAKNTVYLQMNSLKPDDTAIYYCTQDTIPGGAAREFRGYWGQGTQVTVSS[letters of human IgG1 Fc not shown]
